Reference: PubChem BioAssay AID1345083 (National Center for Advancing Translational Sciences (NCATS), 2018)
The whole screen tested about 94,000 compounds, of which about 6,200 (6.6%) were called active. This list was built around the results that the source calls inconclusive (neither active nor inactive); the mix of calls is not that of the screen. Calls come from the whole dose curve; as a rule, active = well fitted inhibition curve with a large enough effect; inconclusive = small, poorly fitted or top-dose-only effect; inactive = flat fitted curve, though single readings scatter. Where the call is inconclusive, the potency comes from a doubtful curve fit.

test: Cytotoxic Profiling in HEK 293 Cell Line of Diverse Libraries Using Quantitative High-Throughput Screening; conditions: HEK 293 viability, ATP luminescence (CellTiter-Glo), 48-72 h; series mostly up to 115 µM; note: nearly all actives have a fitted effect of over 60% in size
How it was run: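 Cells seeded first (HEK 293, 250 cells/well), then compound added by pintool. Incubation ran 48 or 72 hr at 37 degree Celsius. CellTiter-Glo was added and luminescence imaged after 10 min at room temperature.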
Potency is the fitted concentration of half-maximal effect; tags give direction and shape of the fitted curve.

SMILES	Potency
COC(=O)c1ccccc1NC(=O)O[C@@H]1CO[C@H]2[C@@H]1OC[C@@H]2Nc1nccc(-c2ccc(N(C)C)cc2)n1	inconclusive: 8.91 µM [inhibitor, full curve, poor fit]
CN(C)C(=O)c1cnn2ncccc12	inactive
Cc1nn(-c2ccccc2)c2c1C(C1CC1)N(CC1CN(C(=O)NC(C)C)C1)C2=O (stereo unspecified)	inconclusive: 39.8 µM [inhibitor, partial curve, poor fit]
O=C(Cc1cccs1)N1CCCn2cc(-c3ccccc3F)nc21	inconclusive: 50.1 µM [inhibitor, partial curve, poor fit]
NCC1(N2CCOCC2)CCCCC1	inactive
Cc1noc(C)c1-c1cnc(Nc2ccc(Cl)cn2)c2c1CCO2	inconclusive: 70.8 µM [inhibitor, partial curve]
O=C(Cc1ccccc1)NCC1CN(C(=O)Cc2cccc(Oc3ccccc3)c2)CC12CN(c1ccccc1)C2 (stereo unspecified)	inconclusive: 31.6 µM [inhibitor, full curve]
CC(C)c1noc(-c2cn(C3CCN(C(=O)c4cccc(F)c4)C3)nn2)n1 (stereo unspecified)	inconclusive: 44.7 µM [inhibitor, partial curve]
COCC1CN(C2CCC2)CC12CCN(C(=O)C1CC1)CC2 (stereo unspecified)	inconclusive: 56.2 µM [inhibitor, partial curve, poor fit]
CCc1noc(-c2cn(C3CCN(C(=O)c4ccc(F)cc4)C3)nn2)n1 (stereo unspecified)	inconclusive: 39.8 µM [inhibitor, partial curve]
COc1cc(Cl)ccc1C(=O)N1CCN(c2cc(C(F)(F)F)nc(C)n2)CC1	inconclusive: 56.2 µM [inhibitor, single point]
O=C(N[C@@H]1CN(Cc2ccoc2)C[C@H]1CO)c1cccnc1	inconclusive: 31.6 µM [inhibitor, single point]
COC1CCN(C(=O)c2ccc(C(C)(C)C)cc2)CC(=O)N(C)c2ccccc21 (stereo unspecified)	inconclusive: 56.2 µM [inhibitor, partial curve, poor fit]
COCCCn1c(=O)c(C(=O)NCc2cccc(Cl)c2)nc2cccnc21	inactive
CC(C)C(=O)N1CCOc2ccc(CN3CCCCCC3)cc2C1	inconclusive: 35.5 µM [inhibitor, partial curve, poor fit]
N#Cc1cccc(NC(=S)N[C@H]2CO[C@H]3[C@@H]2OC[C@@H]3n2nnnc2Oc2cccc(N3CCOCC3)c2)c1	active: 44.7 µM
CCn1c(C)c(CN2CCc3nc(N4CCN(C)CC4)[nH]c(=O)c3CC2)c2ccccc21	inactive
CC(C)SCC(=O)N1CCCn2nc(C(=O)Nc3ccccc3)cc2C1	inconclusive: 25.1 µM [inhibitor, full curve, poor fit]
O=C(Nc1ccccc1)O[C@@H]1CO[C@H]2[C@@H]1OC[C@@H]2NC(=S)Nc1ccc(F)cc1	inconclusive: 100 µM [inhibitor, partial curve]
COc1ccc(C(=O)N2CCc3ccc(C(=O)NCc4ccccc4)cc32)cc1	inconclusive: 50.1 µM [inhibitor, partial curve, poor fit]
COc1ccccc1NC(=O)COc1cccc(-c2nnc3n2CCCC3)c1	inactive

SMILES	Potency
O=c1c2nc(OCc3ccc(F)cc3)ccc2ncn1C1CC1	inconclusive: 63.1 µM [inhibitor, partial curve, poor fit]
Cc1cc(C)cc(-c2ccc(CN3CCCC3C(=O)NCCc3ccc(F)cc3)cc2)c1 (stereo unspecified)	active: 44.7 µM
CCCNC(=O)C1c2ccccc2C(=O)N(C2CCCCC2)C12CCCCC2 (stereo unspecified)	active: 39.8 µM
Fc1cccc(OC2CCNC2)c1 (stereo unspecified)	inactive
COc1ccccc1-c1ccc(C(=O)N2CCC(C(=O)NCc3ccccc3)CC2)cc1	inconclusive: 89.1 µM [inhibitor, single point]
Cc1nn(-c2ccccc2)c2c1C(C)N(C1CCCN(C(=O)NC(C)C)C1)C2=O (stereo unspecified)	inactive
CCOc1ccccc1CN1CCC2(CCN(Cc3ccc(F)cc3)CC2)Oc2ccccc21	inactive
CNC(=O)c1cc(C2CC2)nc2onc(C3CCN(C(=O)c4ccccc4OC)C3)c12 (stereo unspecified)	inconclusive: 79.4 µM [inhibitor, partial curve, poor fit]
COc1cc(OC)cc(C(=O)Nc2ccc3c(c2)CN(Cc2ccc(F)cc2)C(=O)C(C)O3)c1 (stereo unspecified)	inconclusive: 15.8 µM [inhibitor, full curve, poor fit]
COc1cc(NC(=O)Cn2c(C)cc3nc4n(c(=O)c32)CCC4)cc(OC)c1OC	inactive
COCCNC(=O)C1CCN(c2nccc(Nc3ccc(C)cc3)n2)CC1	inconclusive: 89.1 µM [inhibitor, single point]
CCc1ccc(C(=O)N2CCCC(c3nccn3Cc3ccncc3)C2)s1 (stereo unspecified)	inconclusive: 100 µM [inhibitor, partial curve, poor fit]
CCN1CCCCC12Cc1ccccc1CN(C(=O)c1c(C)noc1C)C2 (stereo unspecified)	inconclusive: 89.1 µM [inhibitor, partial curve, poor fit]
O=C1NC2(CCCN(Cc3ccc(C(F)(F)F)cc3)C2)Oc2ccccc21 (stereo unspecified)	inconclusive: 22.4 µM [inhibitor, full curve, poor fit]
O=C(NC1CCCN(c2cc(-c3ccc(Cl)cc3)[nH]n2)C1)c1ccoc1 (stereo unspecified)	inconclusive: 44.7 µM [inhibitor, partial curve]
CCOc1ccccc1C(=O)N1CCCN(C)c2ccccc21	inconclusive: 89.1 µM [inhibitor, single point]
O=C(c1n[nH]c2ccccc12)N1CCC(Cc2nc(-c3ccncc3)n[nH]2)CC1	inactive
CCCCCC(=O)Nc1nc2c(s1)C[C@@H]1[C@](C)(CO)[C@H](O)CC[C@@]1(C)[C@@H]2CC(=O)N1CCC(C(N)=O)CC1	inactive
COC(=O)[C@@H]1Cc2ncn(Cc3ccccc3)c2CN1S(=O)(=O)c1cccc(C(F)(F)F)c1	inconclusive: 50.1 µM [inhibitor, partial curve, poor fit]
CC(C)(C)n1cc(-c2cc(C(=O)N3C[C@H]4CC[C@H]3C4)c3ccccc3n2)cn1	inconclusive: 50.1 µM [inhibitor, partial curve, poor fit]
